Source: the supplement of paper PMC10185492
The list shows a part of the results. Read counts after selection give these values, which scatter widely.

What follows are substances tested on SARS-CoV-2 3CLpro (nsp5) (assay: substrate phage enrichment score (protease-eluted vs HEPES control, +1 offset) (ratio); higher = better cleaved substrate). Conditions: selection round: 4; protease elution time: 15 min.
Description: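 Random heptapeptide substrate phage display (M13 pIII fusion, heptapeptide between an N-terminal biotinylated AviTag GLNDIFEAQKIEWHE and pIII; phages immobilised on streptavidin) eluted by cleavage with 50 nM protease in 20 mM HEPES at 37 °C. Selected phages were NGS sequenced, and the enrichment score is (reads in protease sample + 1)/(reads in HEPES blank-selection control + 1).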

| Substance | substrate phage enrichment score |
| --- | --- |
| ARHVACG | 4.25 |
| AEATQRL | 5.5 |
| VSSTQYP | > 41 |
| LPRLRLQ | 12.2 |
| ECRVKLQ | > 77 |
| FSAAAHH | 1.43 |
| LSEAAHH | 4 |
| CNARPVT | 5 |
| RRDSARL | 13.7 |
| SLLQSKQ | 37.5 |
| VDTQTSP | 4.5 |
| RPTTVLR | 13.7 |
| PGNGTLS | 0.964 |
| QCDTQAT | > 21 |
| NRSEQWS | 5.5 |
| SEHAAKY | > 37 |
| LCSTACG | 1.36 |
| YPVNMQV | > 25 |
| PAVHMQG | 7.75 |
| RAERHPL | 10 |
| SRKDARD | > 36 |
| REDPPPK | > 21 |
| KARTRDT | 1.67 |

| Substance | substrate phage enrichment score |
| --- | --- |
| GCTPGQL | 17.5 |
| CCTSSLQ | > 24 |
| AYVTTNG | 2.45 |
| ENQTHVY | 0.316 |
| PKACLTT | 8.33 |
| EAWSSPR | 3.86 |
| SASSKSG | 3.14 |
| PKSASSE | 3.1 |
| NGTRSRQ | 2.45 |
| TALDRAR | 0.538 |
| GCAAAHH | 0.53 |
| SPGQATE | 9.67 |
| TGACPLR | > 120 |
| NAWYEQG | 0.438 |
| ECSSSAD | 0.261 |
| PISGLQQ | 0.706 |
| SIGRSRD | > 31 |
| QRHSCML | 1.17 |
| KGPQMSR | > 64 |
| TGRCHRQ | 6.6 |
| LTSPLTT | 1.44 |
| NCTMRSS | 0.087 |
| VEADTRN | 0.389 |

| Substance | substrate phage enrichment score |
| --- | --- |
| PTQFSAG | 2.43 |
| SQASSSG | 3.4 |
| VRHEFFR | > 34 |
| LKCMQKH | > 45 |
| RDGSEAH | 55 |
| QNRRTPL | 0.333 |
| FCQKEGR | > 24 |
| SWDGVTE | > 50 |
| LELHSQR | 1.42 |
| AFPYGDD | 3.29 |
| GSQPDYY | 4.5 |
| CVLGETT | 4.82 |
| EVWIDET | > 71 |
| KHVRACH | 0.25 |
| NCGRALT | 8 |
| QIHLGGP | > 33 |
| CPLLHRQ | 0.302 |
| HDLFSRS | 10.5 |
| DCRPDPR | 5.07 |
| VGHAMTG | 7 |
| IKCETLQ | > 75 |
| THLQKHS | 0.391 |
| SAAAHNQ | 1.48 |

| Substance | substrate phage enrichment score |
| --- | --- |
| CRYWYLG | > 28 |
| ETWPGQG | > 25 |
| AVLQSGR | > 34 |
| RCTQRVK | 4.6 |
| VGRSTCL | 1.52 |
| ARTKLQA | > 23 |
| RHVKAQA | > 32 |
| LLNMAPD | > 21 |
| SSRRTNG | > 39 |
| CAAAHQN | 0.812 |
| SAAAQQH | 1.67 |
| AYNLSGP | > 90 |
| NAGRSIP | 11.7 |
| SQNLIFQ | > 36 |
| IAIRHSW | 3.4 |
| PEAPHDG | 5.4 |
| GILRDAE | 1.94 |
| NTRLISN | 2.43 |
| LCESPPE | > 36 |
| THAAHHH | 2.89 |
| ACAVGPE | 0.833 |
| VCLQGST | > 30 |
| CIWSNAQ | 2.24 |

| Substance | substrate phage enrichment score |
| --- | --- |
| RKQSTLQ | > 109 |
| GTTCRPS | 0.941 |
| SSRAPLR | 46 |
| ARHCAGC | 0.486 |
| AAGSSIQ | > 21 |
| RDVRTAN | > 31 |
| QTLCCKW | 0.842 |
| TTHDMNK | > 29 |
| PVCGSNT | 11.5 |
| RSEAYET | > 24 |
| PLTGDIR | > 66 |
| PESMQSQ | > 35 |
| SICTYSR | > 21 |
| QQPGDRD | 2.25 |
| AASAHQT | 10.5 |
| KSRCAEG | 0.562 |
| NSMNTPC | 23.7 |
| LSNAGQT | 6.67 |
| PACAASC | > 47 |
| PDEFPQS | 7 |
| LNGNKRD | > 23 |
| NGRSNQR | 2.79 |
| ELSPNRT | > 25 |

| Substance | substrate phage enrichment score |
| --- | --- |
| PIPRYAP | 2.11 |
| SLSGRIR | 7.8 |
| TPCTSPK | > 58 |
| KGCCLQA | 40 |
| MTQAPGP | 2.44 |
| QLDSVLS | > 21 |
| PRALGPV | 0.389 |
| GSAAAQH | 0.906 |
| RCKSEGI | > 26 |
| SVLQGLR | 4 |
| TCGCRPQ | > 33 |
| PSRTWAS | > 22 |
| ENDVIHR | 2.58 |
| KHEHVCS | 1.36 |
| VSRDEIF | 3 |
| RHPNMMA | > 25 |
| ECQIGCP | 0.0526 |
| KSRAAEQ | 20.7 |
| NSSLEKA | 7.33 |
| VQTMETR | 0.923 |
| LGNPVQP | > 22 |
| GRTAETR | > 28 |
| SNQSHVR | 0.471 |

| Substance | substrate phage enrichment score |
| --- | --- |
| KTRVMSE | > 38 |
| CRVCMHR | 1.4 |
| ASVILQA | > 34 |
| LVQPNVM | 2.57 |
| DHHHHHG | 0.625 |
| SDCLTDR | 1.82 |
| YPSESMK | > 73 |
| YKQCRSG | > 23 |
| LSAAAHH | 1.06 |
| VSGQNLG | 6.83 |
| AILQSQT | 16.5 |
| HAATPES | 0.119 |
| ARTEQNT | 0.923 |
| RHLNALQ | > 52 |
| THERTDT | 3.95 |
| LNSGESC | 2.42 |
| DSDQKLI | 3.79 |
| LKCEFSR | > 29 |
| WYAPRQG | 0.278 |
| AIAAPFR | > 43 |
| RAVPASM | > 24 |
| KHGDAYT | > 23 |
| QDFQGGS | 0.444 |

| Substance | substrate phage enrichment score |
| --- | --- |
| HPAVLHR | 9.45 |
| RVSAHHH | > 35 |
| RMTSALD | > 21 |
| PEAAHHH | 1.4 |
| MNFQGGS | 4.6 |
| TCNWMLK | 0.227 |
| YPYFQGG | 3.33 |
| EVTCTPW | 1 |
| APEASPN | 0.4 |
| ETQSMFR | 2.62 |
| CDNETMT | > 39 |
| SGQVRQC | 0.829 |
| WRASYNE | 2.3 |
| PGAAHHH | 1.06 |
| RAYDQLN | 1.08 |
| NVDDLPR | 0.381 |
| TRCTGHL | > 40 |
| GYHASCQ | 0.545 |
| CKLQCSN | > 51 |
| QVPVSMH | 38.6 |
| NHHVQGC | > 26 |
| AGGCVRD | 1.82 |
